The source holds more than one record for some entries. Only these are listed. There may be further records. Results that share an entry appear to be repeats (runs, samples, wells or individuals).
Experiment: In vivo biodistribution of radioactive ^99mTc complexes in female SD rats
Parameters: species or system female Sprague-Dawley (SD) rats
Conditions: 30 min post-injection
Method: Female SD rats (180-220 g, n=3) were fasted for 12 h before the experiment, and the purified radioactive 99mTc complexes 78-81 were prepared into physiological saline (containing 10% ethanol) solutions of about 250-350 μCi/mL. 200 μL of the above solution was injected into the tail vein of female SD rats, and the rats were killed by cervical dislocation at five time points, 15, 30, 60, 120 and 240 min after the tail vein injection. The blood, brain, heart, liver, spleen, lung, kidney, muscle, bone, large intestine, small intestine, stomach and tail were collected, weighed and counted, and the count distribution of each tissue and organ was calculated (unit: % ID/g, the unit of large intestine, small intestine and stomach is % ID), and the data are the mean±standard deviation of three mice in each phase. At the same time, 200 μL of the above solution was diluted to 20 mL, which was used as the % ID without deducting the tail count.

COC(C)(C)C[N+]#[C][99Tc-5]([C]#[N+]CC(C)(C)OC)([C]#[N+]CC(C)(C)OC)([C]#[N+]CC(C)(C)OC)([C]#[N+]CC(C)(C)OC)[C]#[N+]CC(C)(C)OCCCCSCCCCC(=O)O [^99mTc complex 79]
Heart-to-Lungs ratio: 8.21 ± 0.51 [table] and 8.21 [text]

Source: patent US20250114486A1, “MARKED FATTY ACID DERIVATIVE, PRECURSOR COMPOUND THEREOF, AND USE THEREOF IN CONTRAST AGENT” (BEIJING NORMAL UNIVERSITY, priority 2022, published 2025)
